Test results as given in the CheMixHub viscosity set.
Several values for one entry are separate records, joined by “and”; a condition that tells them apart may be missing. Identical values can stand only once. This continues a long series; more values of the same kind are listed elsewhere.

Test: xn = mol fraction of the nth substance listed

CCO + O
Conditions	viscosity
308.15 K, 101 kPa, x1 = 0.1722	1.61 mPa·s
308.15 K, 101 kPa, x1 = 0.2	1.71 mPa·s
308.15 K, 101 kPa, x1 = 0.2382	1.707 mPa·s
308.15 K, 101 kPa, x1 = 0.24	1.73 mPa·s
308.15 K, 101 kPa, x1 = 0.3661	1.678 mPa·s
308.15 K, 101 kPa, x1 = 0.48	1.529 mPa·s
308.15 K, 101 kPa, x1 = 0.4821	1.504 mPa·s
308.15 K, 101 kPa, x1 = 0.61	1.355 mPa·s
308.15 K, 101 kPa, x1 = 0.7918	1.254 mPa·s
308.17 K, 101.33 kPa, x1 = 0.0332	0.94 mPa·s
308.17 K, 101.33 kPa, x1 = 0.0714	1.202 mPa·s
308.17 K, 101.33 kPa, x1 = 0.171	1.629 mPa·s
308.17 K, 101.33 kPa, x1 = 0.7355	1.191 mPa·s
313.15 K, 100 kPa, x1 = 0.0376	0.783 mPa·s
313.15 K, 100 kPa, x1 = 0.0725	0.995 mPa·s
313.15 K, 100 kPa, x1 = 0.1152	1.198 mPa·s
313.15 K, 100 kPa, x1 = 0.163	1.35 mPa·s
313.15 K, 101 kPa, x1 = 0.042	0.927 mPa·s
313.15 K, 101 kPa, x1 = 0.095	1.084 mPa·s
313.15 K, 101 kPa, x1 = 0.14	1.352 mPa·s
313.15 K, 101 kPa, x1 = 0.1722	1.386 mPa·s
313.15 K, 101 kPa, x1 = 0.25	1.513 mPa·s
313.15 K, 101 kPa, x1 = 0.28	1.49 mPa·s
313.15 K, 101 kPa, x1 = 0.37	1.447 mPa·s
313.15 K, 101 kPa, x1 = 0.48	1.344 mPa·s and 1.354 mPa·s
313.15 K, 101 kPa, x1 = 0.4821	1.305 mPa·s
313.15 K, 101 kPa, x1 = 0.61	1.203 mPa·s and 1.211 mPa·s
313.15 K, 101 kPa, x1 = 0.6358	1.248 mPa·s
313.15 K, 101 kPa, x1 = 0.78	1.01 mPa·s
313.15 K, 101 kPa, x1 = 0.7918	1.119 mPa·s
313.15 K, 101 kPa, x1 = 0.8	1.035 mPa·s
313.15 K, 101.33 kPa, x1 = 0.0399	0.838 mPa·s
313.15 K, 101.33 kPa, x1 = 0.042	0.946 mPa·s
313.15 K, 101.33 kPa, x1 = 0.089	1.043 mPa·s
313.15 K, 101.33 kPa, x1 = 0.14	1.193 mPa·s
313.15 K, 101.33 kPa, x1 = 0.2048	1.517 mPa·s
313.15 K, 101.33 kPa, x1 = 0.21	1.393 mPa·s
313.15 K, 101.33 kPa, x1 = 0.3526	1.384 mPa·s
313.15 K, 101.33 kPa, x1 = 0.7404	1.042 mPa·s
313.16 K, 101.3 kPa, x1 = 0.61	1.203 mPa·s
313.18 K, 101.33 kPa, x1 = 0.0332	0.8381 mPa·s
313.18 K, 101.33 kPa, x1 = 0.0714	1.054 mPa·s
313.18 K, 101.33 kPa, x1 = 0.1167	1.255 mPa·s
313.18 K, 101.33 kPa, x1 = 0.171	1.401 mPa·s
313.18 K, 101.33 kPa, x1 = 0.4194	1.384 mPa·s
313.18 K, 101.33 kPa, x1 = 0.5537	1.25 mPa·s
313.18 K, 101.33 kPa, x1 = 0.7355	1.066 mPa·s
318.15 K, 100 kPa, x1 = 0.033	0.738 mPa·s
318.15 K, 100 kPa, x1 = 0.116	0.981 mPa·s
318.15 K, 101 kPa, x1 = 0.04	0.812 mPa·s
318.15 K, 101 kPa, x1 = 0.09	1.015 mPa·s
318.15 K, 101 kPa, x1 = 0.095	0.947 mPa·s
318.15 K, 101 kPa, x1 = 0.1	1.189 mPa·s
318.15 K, 101 kPa, x1 = 0.1722	1.205 mPa·s
318.15 K, 101 kPa, x1 = 0.2	1.284 mPa·s
318.15 K, 101 kPa, x1 = 0.2382	1.278 mPa·s
318.15 K, 101 kPa, x1 = 0.24	1.307 mPa·s
318.15 K, 101 kPa, x1 = 0.3661	1.276 mPa·s
318.15 K, 101 kPa, x1 = 0.48	1.189 mPa·s
318.15 K, 101 kPa, x1 = 0.61	1.081 mPa·s
318.15 K, 101 kPa, x1 = 0.6358	1.108 mPa·s
318.15 K, 101 kPa, x1 = 0.8	0.939 mPa·s
318.16 K, 101.33 kPa, x1 = 0.0332	0.753 mPa·s
318.16 K, 101.33 kPa, x1 = 0.0714	0.9237 mPa·s
318.16 K, 101.33 kPa, x1 = 0.1167	1.095 mPa·s
318.16 K, 101.33 kPa, x1 = 0.171	1.216 mPa·s
318.16 K, 101.33 kPa, x1 = 0.4194	1.218 mPa·s
318.16 K, 101.33 kPa, x1 = 0.5537	1.108 mPa·s
318.16 K, 101.33 kPa, x1 = 0.7355	0.9555 mPa·s
323.15 K, 100 kPa, x1 = 0.0376	0.585 mPa·s
323.15 K, 100 kPa, x1 = 0.0725	0.747 mPa·s
323.15 K, 100 kPa, x1 = 0.163	1.004 mPa·s
323.15 K, 101 kPa, x1 = 0.04	0.734 mPa·s
323.15 K, 101 kPa, x1 = 0.042	0.798 mPa·s
323.15 K, 101 kPa, x1 = 0.089	0.98 mPa·s
323.15 K, 101 kPa, x1 = 0.09	0.907 mPa·s
323.15 K, 101 kPa, x1 = 0.095	0.8377 mPa·s
323.15 K, 101 kPa, x1 = 0.1	1.05 mPa·s
323.15 K, 101 kPa, x1 = 0.14	1.124 mPa·s
323.15 K, 101 kPa, x1 = 0.1722	1.052 mPa·s
323.15 K, 101 kPa, x1 = 0.2	1.124 mPa·s
323.15 K, 101 kPa, x1 = 0.21	1.132 mPa·s and 1.219 mPa·s
323.15 K, 101 kPa, x1 = 0.2382	1.125 mPa·s
323.15 K, 101 kPa, x1 = 0.24	1.146 mPa·s
323.15 K, 101 kPa, x1 = 0.25	1.257 mPa·s
323.15 K, 101 kPa, x1 = 0.28	1.155 mPa·s and 1.226 mPa·s
323.15 K, 101 kPa, x1 = 0.3661	1.121 mPa·s
323.15 K, 101 kPa, x1 = 0.37	1.127 mPa·s and 1.177 mPa·s
323.15 K, 101 kPa, x1 = 0.48	1.062 mPa·s and 1.11 mPa·s
323.15 K, 101 kPa, x1 = 0.4821	0.9981 mPa·s
323.15 K, 101 kPa, x1 = 0.61	0.968 mPa·s and 0.998 mPa·s
323.15 K, 101 kPa, x1 = 0.6358	0.9908 mPa·s
323.15 K, 101 kPa, x1 = 0.78	0.853 mPa·s
323.15 K, 101 kPa, x1 = 0.7918	0.9026 mPa·s
323.15 K, 101 kPa, x1 = 0.8	0.848 mPa·s
323.15 K, 101.33 kPa, x1 = 0.0399	0.658 mPa·s
323.15 K, 101.33 kPa, x1 = 0.042	0.769 mPa·s
323.15 K, 101.33 kPa, x1 = 0.087	0.834 mPa·s
323.15 K, 101.33 kPa, x1 = 0.089	0.808 mPa·s
323.15 K, 101.33 kPa, x1 = 0.14	0.937 mPa·s
323.15 K, 101.33 kPa, x1 = 0.2048	1.001 mPa·s
323.15 K, 101.33 kPa, x1 = 0.21	1.066 mPa·s
323.15 K, 101.33 kPa, x1 = 0.28	1.134 mPa·s
323.15 K, 101.33 kPa, x1 = 0.3526	1.03 mPa·s
323.15 K, 101.33 kPa, x1 = 0.6001	0.891 mPa·s
323.15 K, 101.33 kPa, x1 = 0.7404	0.816 mPa·s
